# Results: article PMC4336329 (PLoS ONE, 2015)
# About 2,200 (0.71%) of roughly 310,000 compounds showed an effect of 50% or more. Effects have a minus sign here. Some of the results follow.
# Biological target: human ether-à-go-go-related gene (hERG) potassium channel (human, UniProt Q12809)
# Assay: primary screen, population patch clamp on CHO cells stably expressing hERG
# Sequence of human ether-à-go-go-related gene (hERG) potassium channel (Q12809 whole entry, looked up): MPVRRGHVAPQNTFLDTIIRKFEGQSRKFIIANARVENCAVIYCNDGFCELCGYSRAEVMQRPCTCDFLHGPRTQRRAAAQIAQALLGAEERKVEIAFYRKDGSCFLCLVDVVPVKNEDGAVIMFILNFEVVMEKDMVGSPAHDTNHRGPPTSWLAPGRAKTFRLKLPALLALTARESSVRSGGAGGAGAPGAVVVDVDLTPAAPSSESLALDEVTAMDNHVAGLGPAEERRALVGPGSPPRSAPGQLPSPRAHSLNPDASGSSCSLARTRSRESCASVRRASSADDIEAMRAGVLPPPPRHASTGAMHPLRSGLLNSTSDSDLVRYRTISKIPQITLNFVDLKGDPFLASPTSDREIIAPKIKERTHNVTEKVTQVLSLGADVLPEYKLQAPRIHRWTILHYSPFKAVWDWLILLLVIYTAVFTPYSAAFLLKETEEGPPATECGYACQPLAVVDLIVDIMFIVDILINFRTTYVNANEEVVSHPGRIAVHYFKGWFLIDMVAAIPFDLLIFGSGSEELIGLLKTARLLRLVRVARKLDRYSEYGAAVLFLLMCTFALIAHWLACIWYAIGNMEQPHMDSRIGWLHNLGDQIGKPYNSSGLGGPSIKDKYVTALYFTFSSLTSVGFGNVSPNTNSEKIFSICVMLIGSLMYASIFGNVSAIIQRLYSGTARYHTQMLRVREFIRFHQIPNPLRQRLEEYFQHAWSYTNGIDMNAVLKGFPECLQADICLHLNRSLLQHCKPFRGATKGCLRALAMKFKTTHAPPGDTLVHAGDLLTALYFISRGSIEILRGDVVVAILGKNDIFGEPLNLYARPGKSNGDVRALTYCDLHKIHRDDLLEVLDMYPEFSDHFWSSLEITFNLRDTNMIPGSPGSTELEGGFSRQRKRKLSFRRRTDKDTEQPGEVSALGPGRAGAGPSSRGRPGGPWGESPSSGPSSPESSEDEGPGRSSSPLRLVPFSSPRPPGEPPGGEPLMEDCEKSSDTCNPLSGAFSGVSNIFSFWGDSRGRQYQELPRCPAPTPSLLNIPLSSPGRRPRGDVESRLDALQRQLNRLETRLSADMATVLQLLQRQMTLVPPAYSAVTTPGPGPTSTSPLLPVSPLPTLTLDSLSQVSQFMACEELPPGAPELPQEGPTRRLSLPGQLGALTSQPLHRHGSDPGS
row,Compound,"hERG current change (%, negative = inhibition) at 1uM [%]"
1,CC1=C(OC(=O)C(C)(C)C)C(C)(C)C(c2ccccc2)OC1=O (centres unmarked),-0.619
2,Cc1ccc(-c2csc3ncn(Cc4ccc(C(=O)O)cc4)c(=O)c23)cc1C,3.85
3,N#Cc1cc2c(nc1Cl)CCC2,16.7
4,CCOC(=O)Cc1csc(N/C(=N/S(=O)(=O)c2ccc(Cl)cc2)c2ccccc2)n1,15
5,COc1ccccc1N1CCN(C(=O)c2ccc3c(c2)CCN3S(=O)(=O)c2ccccc2)CC1,14.5
6,CCOc1ccc(CN2CCN(CCCc3ccccc3)CC2CCO)cc1 (centres unmarked),-80.9
7,CC1(C)C=Cc2cc3ccc(=O)oc3cc2O1,6.91
8,O=C(OCc1cc(=O)n2ccsc2n1)c1ccc(O)cc1O,-5.95
9,COc1cccc(-c2nc(N3CCCCC3)c3ccccc3n2)c1O,11.3
10,COc1ccc(NC(=O)CC2C(=O)N(C)C(=S)N2CCc2ccccc2F)cc1 (centres unmarked),8.21
11,COc1ccc(-c2cc(C(F)(F)F)nc(-n3ccnc3)n2)cc1,11.5
12,O=C(COc1cccnc1[N+](=O)[O-])NCc1ccco1,2.02
13,COc1cc2c(cc1OC)CN(C(=O)CN1C(=O)c3ccc([N+](=O)[O-])cc3C1=O)CC2,10.3
14,CSc1nc(NNC=O)cc(Oc2ccc(NC(C)=O)cc2)n1,17.3
15,CCO[C@@H]1OC(C(=O)N2CCOCC2)=C[C@H](c2cn(C(C)=O)c3ccccc23)[C@H]1CCCO,4.34
16,O=[N+]([O-])c1cccnc1SCc1c(F)cccc1Cl,16.4
17,CC1CCCC(C)N1C(=O)COc1ccccc1F (centres unmarked),14.2
18,CS(=O)(=O)c1nc(-c2ccco2)cc(C(F)(F)F)n1,14.4
19,Cc1ccc(S(=O)(=O)N2CCC(C(=O)OC(C)C(=O)NCc3ccc4c(c3)OCO4)CC2)cc1 (centres unmarked),8.22

row,Compound,"hERG current change (%, negative = inhibition) at 1uM [%]"
1,Cn1nccc1C(=O)N1CCCC(C(=O)c2ccc(C(F)(F)F)cc2)C1 (centres unmarked),13.1
2,O=C(O)C1C2CC2CN1C(=O)c1ccc(Cl)cc1Cl (centres unmarked),11.1
3,O=C(CN1C(=O)NC(c2ccccc2)(c2ccccc2)C1=O)N1CCN(c2ccc(F)cc2)CC1,-2.31
4,COc1ccc(-n2c(C)cc(C(=O)CSc3nnc(-c4cccs4)o3)c2C)cc1,-11.5
5,Clc1ccc(-c2cn3c(n2)SCC3)cc1,12.4
6,O=C(Cc1ccccc1)N/N=C/c1ccc(-c2ccc([N+](=O)[O-])cc2)o1,4.87
7,Cc1ccc(C(OC(=O)c2ccco2)C(=O)NC2CCCC2)cc1 (centres unmarked),11.3
8,COc1ccc(CCNC(=O)CC2C(=O)NCCN2CC(C)(C)C)cc1 (centres unmarked),8.21
9,COc1ccc(NC(=O)Cn2nnc(C(=O)NCc3ccco3)c2N)c(OC)c1,22.8
10,O=C(CN(C(=O)C1COc2ccccc2O1)c1ccccc1)NCC1CCCO1 (centres unmarked),-9.34
11,Cc1cccc(NC(=O)Cn2c(O)c(N=NC(=O)c3ccncc3)c3ccccc32)c1,6.45
12,COc1ccc(Nc2nc(-c3cccs3)nc3ccccc23)cc1S(=O)(=O)N1CCOCC1,1.78
13,COC(=O)c1ccc(C23CC4(C2)[C@H](CN(Cc2ccc(C(F)(F)F)cc2)[C@@H]4c2ccccc2)C3c2ccccc2)cc1 (some centres unmarked),12.7
14,Cc1ccccc1CN(C)CC(=O)Nc1ccccc1Oc1ccccc1,14
15,COc1c2c(nc3ccccc13)OC(C(C)(O)CO)C2 (centres unmarked),16.2
16,Cc1ccc2[nH]cc(C(=O)CN3CCOCC3)c2c1,24.4
17,O=C(N/N=C/c1ccc(Cl)cc1Cl)c1ccc2nc[nH]c2c1,20.1
18,CCOc1ccc(NC(=O)CSc2n[nH]c(N)n2)c([N+](=O)[O-])c1,7.15
19,c1ccc(-n2nnnc2Oc2ccc(-n3ccnc3)cc2)cc1,-36.9

row,Compound,"hERG current change (%, negative = inhibition) at 1uM [%]"
1,COc1ccc(N(CC(=O)NCCSc2ccccn2)S(=O)(=O)c2ccc(C)cc2)cc1OC,-2.25
2,N#Cc1cc2ccccc2nc1SCC(=O)NC1CC1,10.7
3,Cc1nc(SCC2(C)CC2(Cl)Cl)n[nH]1 (centres unmarked),17.9
4,COc1cc(CN2CCNC(=O)C2CC(=O)NCCCC2CCCC2)cc(OC)c1 (centres unmarked),10
5,CSC1=N/C(=C\c2ccccc2C)C(=O)S1,13.9
6,CCN1C(=O)CSC1=Nc1ccccc1Cl,12.1
7,O=C(Cc1ccc([N+](=O)[O-])cc1)NCc1cccnc1,13.1
8,Cc1ccsc1C(=O)N1CCCC(CO)(Cc2ccccc2F)C1 (centres unmarked),13.9
9,COc1ccc(S(=O)(=O)N2CCN(C(=O)c3cc(-c4ccc(C)cc4)n[nH]3)CC2)cc1,1.74
10,COc1ccc(CC(=O)NNc2ncnc3c2cnn3Cc2ccccc2)cc1OC,15.3
11,COc1ccc(C(=O)N/C(=C\c2ccccc2)C(=O)Nc2cccc(C(=O)O)c2)cc1,17.9
12,COc1cccc(N/C(N)=N/c2nc(C)cc(=O)[nH]2)c1,10.9
13,c1cc(-c2cccs2)nc(-c2cccs2)c1,2.2
14,Cc1nc(-c2ccccc2)sc1-c1nnc(C2CC2)o1,-0.729
15,CC1CN(C(=O)Cn2cc(S(=O)(=O)CC(=O)N(C)c3ccccc3)c3ccccc32)CC(C)O1 (centres unmarked),10.7
16,Cc1cccc(OCC(=O)NCc2ccccc2)c1,14.3
17,COC(=O)CN1C(=O)C2(OCCCO2)c2ccccc21,5.51
18,CC(C)c1ccc(N2C(=O)NC(=O)/C(=C\C=C\c3ccco3)C2=O)cc1,12.8
